Assay results published in the supplement of paper PMC12217912.
This is one part of the list. The full chains were built here from the parent and the listed change. Values near 0.05 are background.

B1: TEV protease; numbered along this chain (parent)
chain: MGESLFKGPRDYNPISSSICHLTNESDGHTTSLYGIGFGPFIITNKHLFRRNNGTLVVQSLHGVFKVKDTTTLQQHLVDGRDMIIIRMPKDFPPFPQKLKFREPQREERICLVTTNFQTKSMSSMVSDTSCTFPSGDGIFWKHWIQTKDGQCGSPLVSTRDGFIVGIHSASNFTNTNNYFTSVPKNFMELLTNQEAQQWVSGWRLNADSVLWGGHKVFMVKPEEPFQPVKEATQL

Variants of: B1
Experiment: raw area under fraction-flipped curve 0-4 h after induction (AUC4h, not background-subtracted), DNA-recorder readout of cleavage of the substrate (dimensionless); higher = more cleavage of the substrate by the protease variant
Conditions: temperature: 34 °C; time window: 0-4 h after rhamnose induction
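Note: Bxb1 expression induced with 0.2% (w/v) L-rhamnose at OD600 near 0.5, cultures sampled hourly, flipped fraction per protease–substrate barcode pair counted by paired-end Illumina sequencing.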

Variant	area with substrate ENLYFCS	area with substrate ENLYFES	area with substrate ENLYFFS	area with substrate ENLYFKS	area with substrate ENLYFPS	area with substrate ENLYFRS	area with substrate ENLYFTS	area with substrate ENLYFYS	area with substrate ENLYFHS	area with substrate ENLYFIS	area with substrate ENLYFLS	area with substrate ENLYFMS	area with substrate ENLYFSS	area with substrate ENLYFNS	area with substrate ENLYFWS	area with substrate ENLYFDS	area with substrate ENLYFVS	area with substrate ENLYFGS
MGESLFKGPRDYNPISSSICHLTNESDGHTTSLYGIGFGPFIITNKHLFRRNNGTLVVQSLHGVFKVKDTTTLQQHLVDGRDMIIIRMPKDFPPFPQKLKFREPQREERICLVTTNFQTKSMSSMVSDTSCTFPSGDGIFWKHWIQTKDGQCGSPLVSTRDGFIVGIHSASNFTNTNNYFTSVPKEFMELLTNQEAQQWVSGWRLNADSVLWGGHKVFMVKPEEPFQPVKEATQL [N186E]	0.0618	0.0666	0.0715	0.0513	0.0537	0.0843	0.0814	0.0798	–	–	–	–	–	–	–	–	–	–
MGESLFKGPRDYNPISSSICHLTNESDGHTTSLYGIGFGPFIITNKHLFRRNNGTLVVQSLHGVFKVKDTTTLQQHLVDGRDMIIIRMPKDFPPFPQKLKFREPQREERICLVTTNFQTKSMSSMVSDTSCTFPSGDGIFWKHWIQTKDGQCGSPLVSTRDGFIVGIHSASNFTNTNNYFTSVPKNCMELLTNQEAQQWVSGWRLNADSVLWGGHKVFMVKPEEPFQPVKEATQL [F187C]	0.0536	0.0593	–	–	–	–	0.0599	–	0.0502	0.0501	0.076	0.0736	0.102	–	–	–	–	–
MGESLFKGPRDYNPISSSICHLTNESDGHTTSLYGIGFGPFIITNKHLFRRNNGTLVVQSLHGVFKVKDTTTLQQHLVDGRDMIIIRMPKDFPPFPQKLKFREPQREERICLVTTNFQTKSMSSMVSDTSCTFPSGDGIFWKHWIQTKDGQCGSPLVSTRDGFIVGIHSASNFTNTNNYFTSVPKNNMELLTNQEAQQWVSGWRLNADSVLWGGHKVFMVKPEEPFQPVKEATQL [F187N]	0.014	0.0453	0.0537	0.0531	0.0493	0.0413	0.0858	–	–	0.0571	0.0442	0.032	–	0.0771	0.0639	–	–	–
MGESLFKGPRDYNPISSSICHLTNESDGHTTSLYGIGFGPFIITNKHLFRRNNGTLVVQSLHGVFKVKDTTTLQQHLVDGRDMIIIRMPKDFPPFPQKLKFREPQREERICLVTTNFQTKSMSSMVSDTSCTFPSGDGIFWKHWIQTKDGQCGSPLVSTRDGFIVGIHSASNFTNTNNYFTSVPKNFMEGLTNQEAQQWVSGWRLNADSVLWGGHKVFMVKPEEPFQPVKEATQL [L190G]	0.0527	0.0693	0.0663	–	0.0678	0.0584	–	–	0.0609	0.0644	–	0.0657	–	–	0.0778	–	–	–
MGESLFKGPRDYNPISSSICHLTNESDGHTTSLYGIGFGPFIITNKHLFRRNNGTLVVQSLHGVFKVKDTTTLQQHLVDGRDMIIIRMPKDFPPFPQKLKFREPQREERICLVTTNFQTKSMSSMVSDTSCTFPSGDGIFWKHWIQTKDGQCGSPLVSTRDGFIVGIHSASNFTNTNNYFTSVPKNFMELLTNQFAQQWVSGWRLNADSVLWGGHKVFMVKPEEPFQPVKEATQL [E195F]	0.0604	0.0561	0.0858	0.0633	0.0463	–	0.0782	0.0481	0.0642	0.0571	0.0706	0.0564	–	0.0621	0.0662	0.0575	0.0462	–
MGESLFKGPRDYNPISSSICHLTNESDGHTTSLYGIGFGPFIITNKHLFRRNNGTLVVQSLHGVFKVKDTTTLQQHLVDGRDMIIIRMPKDFPPFPQKLKFREPQREERICLVTTNFQTKSMSSMVSDTSCTFPSGDGIFWKHWIQTKDGQCGSPLVSTRDGFIVGIHSASNFTNTNNYFTSVPKNFMELLTNQEMQQWVSGWRLNADSVLWGGHKVFMVKPEEPFQPVKEATQL [A196M]	0.0546	0.0527	0.0742	0.059	0.0579	0.0552	0.0421	0.0522	0.0529	0.0631	0.0539	0.0712	0.0464	0.0748	–	0.0591	–	–
MGESLFKGPRDYNPISSSICHLTNESDGHTTSLYGIGFGPFIITNKHLFRRNNGTLVVQSLHGVFKVKDTTTLQQHLVDGRDMIIIRMPKDFPPFPQKLKFREPQREERICLVTTNFQTKSMSSMVSDTSCTFPSGDGIFWKHWIQTKDGQCGSPLVSTRDGFIVGIHSASNFTNTNNYFTSVPKNFMELLTNQEAQQWVIGWRLNADSVLWGGHKVFMVKPEEPFQPVKEATQL [S201I]	0.0511	0.0524	0.0731	0.0625	0.0489	–	0.0747	0.0471	–	0.0459	–	0.0602	0.0589	0.0566	0.0401	–	0.0562	–
MGESLFKGPRDYNPISSSICHLTNESDGHTTSLYGIGFGPFIITNKHLFRRNNGTLVVQSLHGVFKVKDTTTLQQHLVDGRDMIIIRMPKDFPPFPQKLKFREPQREERICLVTTNFQTKSMSSMVSDTSCTFPSGDGIFWKHWIQTKDGQCGSPLVSTRDGFIVGIHSASNFTNTNNYFTSVPKNFMELLTNQEAQQWVLGWRLNADSVLWGGHKVFMVKPEEPFQPVKEATQL [S201L]	0.0507	–	–	0.0624	–	0.0423	0.0595	0.0557	0.0722	0.0429	0.097	0.0477	–	0.0417	0.062	–	–	0.0552
MGESLFKGPRDYNPISSSICHLTNESDGHTTSLYGIGFGPFIITNKHLFRRNNGTLVVQSLHGVFKVKDTTTLQQHLVDGRDMIIIRMPKDFPPFPQKLKFREPQREERICLVTTNFQTKSMSSMVSDTSCTFPSGDGIFWKHWIQTKDGQCGSPLVSTRDGFIVGIHSASNFTNTNNYFTSVPKNFMELLTNQEAQQWVSMWRLNADSVLWGGHKVFMVKPEEPFQPVKEATQL [G202M]	0.057	0.0585	0.0568	0.051	0.0541	–	0.0552	0.0282	0.0523	0.0543	0.0621	0.0567	0.042	–	–	0.0438	0.0528	–
MGESLFKGPRDYNPISSSICHLTNESDGHTTSLYGIGFGPFIITNKHLFRRNNGTLVVQSLHGVFKVKDTTTLQQHLVDGRDMIIIRMPKDFPPFPQKLKFREPQREERICLVTTNFQTKSMSSMVSDTSCTFPSGDGIFWKHWIQTKDGQCGSPLVSTRDGFIVGIHSASNFTNTNNYFTSVPKNFMELLTNQEAQQWVSGCRLNADSVLWGGHKVFMVKPEEPFQPVKEATQL [W203C]	0.0434	0.083	0.0713	0.0551	–	0.0557	0.059	–	–	0.0594	0.0486	0.0592	–	–	0.0543	0.061	–	–
MGESLFKGPRDYNPISSSICHLTNESDGHTTSLYGIGFGPFIITNKHLFRRNNGTLVVQSLHGVFKVKDTTTLQQHLVDGRDMIIIRMPKDFPPFPQKLKFREPQREERICLVTTNFQTKSMSSMVSDTSCTFPSGDGIFWKHWIQTKDGQCGSPLVSTRDGFIVGIHSASNFTNTNNYFTSVPKNFMELLTNQEAQQWVSGWWLNADSVLWGGHKVFMVKPEEPFQPVKEATQL [R204W]	0.0619	0.0637	0.0665	0.064	0.0968	0.0524	0.0536	0.0532	0.0513	0.0623	0.0687	0.0697	0.0651	0.0637	0.0529	–	–	0.0766
MGESLFKGPRDYNPISSSICHLTNESDGHTTSLYGIGFGPFIITNKHLFRRNNGTLVVQSLHGVFKVKDTTTLQQHLVDGRDMIIIRMPKDFPPFPQKLKFREPQREERICLVTTNFQTKSMSSMVSDTSCTFPSGDGIFWKHWIQTKDGQCGSPLVSTRDGFIVGIHSASNFTNTNNYFTSVPKNFMELLTNQEAQQWVSGWRENADSVLWGGHKVFMVKPEEPFQPVKEATQL [L205E]	0.0459	0.0656	0.0699	0.0588	0.0678	0.0609	–	0.0645	0.0557	0.0532	0.0785	–	–	0.0628	0.0513	–	0.0557	0.035
MGESLFKGPRDYNPISSSICHLTNESDGHTTSLYGIGFGPFIITNKHLFRRNNGTLVVQSLHGVFKVKDTTTLQQHLVDGRDMIIIRMPKDFPPFPQKLKFREPQREERICLVTTNFQTKSMSSMVSDTSCTFPSGDGIFWKHWIQTKDGQCGSPLVSTRDGFIVGIHSASNFTNTNNYFTSVPKNFMELLTNQEAQQWVSGWRLNEDSVLWGGHKVFMVKPEEPFQPVKEATQL [A207E]	0.0609	–	0.0469	–	0.0621	–	0.0211	–	0.131	0.0606	–	–	–	0.0695	–	0.0615	–	–
MGESLFKGPRDYNPISSSICHLTNESDGHTTSLYGIGFGPFIITNKHLFRRNNGTLVVQSLHGVFKVKDTTTLQQHLVDGRDMIIIRMPKDFPPFPQKLKFREPQREERICLVTTNFQTKSMSSMVSDTSCTFPSGDGIFWKHWIQTKDGQCGSPLVSTRDGFIVGIHSASNFTNTNNYFTSVPKNFMELLTNQEAQQWVSGWRLNVDSVLWGGHKVFMVKPEEPFQPVKEATQL [A207V]	0.0473	0.0631	0.0646	0.0892	0.0712	0.0462	0.0973	0.0586	0.0555	0.0549	–	0.0634	–	0.0575	–	–	0.0098	0.0746
MGESLFKGPRDYNPISSSICHLTNESDGHTTSLYGIGFGPFIITNKHLFRRNNGTLVVQSLHGVFKVKDTTTLQQHLVDGRDMIIIRMPKDFPPFPQKLKFREPQREERICLVTTNFQTKSMSSMVSDTSCTFPSGDGIFWKHWIQTKDGQCGSPLVSTRDGFIVGIHSASNFTNTNNYFTSVPKNFMELLTNQEAQQWVSGWRLNYDSVLWGGHKVFMVKPEEPFQPVKEATQL [A207Y]	0.0515	0.0584	–	–	0.0547	0.0564	0.0704	0.0568	–	–	–	0.0633	–	–	0.0439	–	–	–
MGESLFKGPRDYNPISSSICHLTNESDGHTTSLYGIGFGPFIITNKHLFRRNNGTLVVQSLHGVFKVKDTTTLQQHLVDGRDMIIIRMPKDFPPFPQKLKFREPQREERICLVTTNFQTKSMSSMVSDTSCTFPSGDGIFWKHWIQTKDGQCGSPLVSTRDGFIVGIHSASNFTNTNNYFTSVPKNFMELLTNQEAQQWVSGWRLNADSVCWGGHKVFMVKPEEPFQPVKEATQL [L211C]	0.0664	–	0.0645	0.074	0.0548	0.0627	0.0785	–	0.0801	0.0534	0.0487	–	–	0.06	–	–	0.0577	0.07
MGESLFKGPRDYNPISSSICHLTNESDGHTTSLYGIGFGPFIITNKHLFRRNNGTLVVQSLHGVFKVKDTTTLQQHLVDGRDMIIIRMPKDFPPFPQKLKFREPQREERICLVTTNFQTKSMSSMVSDTSCTFPSGDGIFWKHWIQTKDGQCGSPLVSTRDGFIVGIHSASNFTNTNNYFTSVPKNFMELLTNQEAQQWVSGWRLNADSVLWGGHKVFMVDPEEPFQPVKEATQL [K221D]	0.0646	–	0.0729	–	0.0622	–	–	0.0685	0.0603	0.0505	0.0426	0.0623	0.0526	0.0562	0.0578	–	0.0546	–
MGESLFKGPRDYNPISSSICHLTNESDGHTTSLYGIGFGPFIITNKHLFRRNNGTLVVQSLHGVFKVKDTTTLQQHLVDGRDMIIIRMPKDFPPFPQKLKFREPQREERICLVTTNFQTKSMSSMVSDTSCTFPSGDGIFWKHWIQTKDGQCGSPLVSTRDGFIVGIHSASNFTNTNNYFTSVPKNFMELLTNQEAQQWVSGWRLNADSVLWGGHKVFMVKPEEPFQPVLEATQL [K230L]	0.0653	–	0.0744	0.0768	0.0564	–	0.0585	0.055	–	0.0557	–	0.0645	0.0689	–	0.0549	0.0791	–	–
MGESLFKGPRDYNPISSSICHLTNESDGHTTSLYGIGFGPFIITNKHLFRRNNGTLVVQSLHGVFKVKDTTTLQQHLVDGRDMIIIRMPKDFPPFPQKLKFREPQREERICLVTTNFQTKSMSSMVSDTSCTFPSGDGIFWKHWIQTKDGQCGSPLVSTRDGFIVGIHSASNFTNTNNYFTSVPKNFMELLTNQEAQQWVSGWRLNADSVLWGGHKVFMVKPEEPFQPVKEATHL [Q234H]	0.0485	0.0595	0.08	0.0575	0.0574	–	0.0593	–	–	–	–	0.0696	–	0.0552	–	–	–	–
